This note sets out measurements from publication PMC4336329 (PLoS ONE, 2015).

Structures are written as SMILES. Out of some 310,000 compounds screened, about 14,000 (4.5%) showed an effect of 50% or more. Effects have a minus sign here. This is one part of the list.
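Further: peak tail current of the secondary pulse compared with the same well before compound.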

The target of the test is human ether-à-go-go-related gene (hERG) potassium channel (human, UniProt Q12809). In words: primary screen, population patch clamp on CHO cells stably expressing hERG.
human ether-à-go-go-related gene (hERG) potassium channel, sequence (Q12809 whole entry, looked up): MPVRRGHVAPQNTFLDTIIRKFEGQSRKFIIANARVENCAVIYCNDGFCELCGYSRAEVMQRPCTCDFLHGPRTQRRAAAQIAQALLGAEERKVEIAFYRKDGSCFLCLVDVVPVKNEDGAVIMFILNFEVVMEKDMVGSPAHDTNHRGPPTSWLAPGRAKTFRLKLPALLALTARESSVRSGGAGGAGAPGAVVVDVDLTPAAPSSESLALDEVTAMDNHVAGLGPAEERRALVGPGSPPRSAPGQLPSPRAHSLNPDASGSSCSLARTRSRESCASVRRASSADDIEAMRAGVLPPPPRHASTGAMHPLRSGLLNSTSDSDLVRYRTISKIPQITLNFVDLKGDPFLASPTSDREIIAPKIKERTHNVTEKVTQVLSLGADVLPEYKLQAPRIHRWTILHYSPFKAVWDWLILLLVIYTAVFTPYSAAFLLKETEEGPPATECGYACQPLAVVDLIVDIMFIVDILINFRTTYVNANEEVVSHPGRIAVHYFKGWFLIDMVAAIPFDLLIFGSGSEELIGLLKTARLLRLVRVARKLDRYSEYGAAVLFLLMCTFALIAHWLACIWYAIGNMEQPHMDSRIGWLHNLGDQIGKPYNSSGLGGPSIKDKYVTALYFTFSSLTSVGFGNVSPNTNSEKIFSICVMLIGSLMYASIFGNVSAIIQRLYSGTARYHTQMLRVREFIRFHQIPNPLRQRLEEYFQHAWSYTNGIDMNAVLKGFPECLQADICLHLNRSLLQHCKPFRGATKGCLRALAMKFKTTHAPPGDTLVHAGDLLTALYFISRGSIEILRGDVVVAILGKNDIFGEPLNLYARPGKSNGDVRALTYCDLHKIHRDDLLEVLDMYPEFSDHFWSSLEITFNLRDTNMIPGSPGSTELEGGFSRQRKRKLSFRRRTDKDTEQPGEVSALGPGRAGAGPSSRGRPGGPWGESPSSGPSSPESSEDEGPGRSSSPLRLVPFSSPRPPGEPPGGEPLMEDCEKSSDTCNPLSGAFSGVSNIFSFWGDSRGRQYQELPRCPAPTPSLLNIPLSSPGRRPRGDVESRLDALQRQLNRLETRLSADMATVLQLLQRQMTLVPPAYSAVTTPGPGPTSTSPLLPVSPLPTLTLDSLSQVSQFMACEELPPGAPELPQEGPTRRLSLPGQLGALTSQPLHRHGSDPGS
For `COC(=O)C1=C(c2ccc(F)cc2OCc2ccccc2)C[C@@H]2CC[C@H]1N2C(=O)NCCO`, the “hERG current change (%, negative = inhibition) at 10uM” value is 3.42%.
Take `COc1cccc(CNC(=O)CCNS(=O)(=O)c2cccs2)c1`: the “hERG current change (%, negative = inhibition) at 10uM” value is listed as -5.11%.
As for `O=C(Nc1cccc(Cl)c1)N(CCN1CCOCC1)Cc1cccc(Cl)c1`, the figure is -22.1%.
On to `c1ccc2sc(NC3=NCN(Cc4ccc5c(c4)OCO5)CN3)nc2c1`, for which the “hERG current change (%, negative = inhibition) at 10uM” value worked out at 4.28%.
Turning to `CC(C)Oc1ccc(CC2CCC(=O)N(C)C2=O)cc1` (centres unmarked), the “hERG current change (%, negative = inhibition) at 10uM” value is reported as -13%.
Take `Cc1nc(N(C)C)c2sc(=S)n(C)c2n1`: the “hERG current change (%, negative = inhibition) at 10uM” value is on record as -6.82%.
To `Oc1ccc(Cl)cc1C=Nc1ccc(Br)cc1` belongs 10.1%.
As for `COc1ccc(CN2CCN(C)CC2)cc1OCc1ccccc1`, the figure is -19%; as for `O=C(O)c1ccc(/C=N/NC(=O)c2ccc3c(c2)OCCO3)cc1`, 16.1%.
`CCSc1nnc(NC(=O)COc2ccc(Cl)cc2)s1`: the “hERG current change (%, negative = inhibition) at 10uM” value worked out at 24%.
For the molecule `CCn1c(SCC(=O)NC2CCCC2)nnc1-c1ccoc1C`, the “hERG current change (%, negative = inhibition) at 10uM” value was 14%.
Take `O=C(CCc1ccccc1)NN1C(=O)C2C3C=CC(O3)C2C1=O` (centres unmarked): the “hERG current change (%, negative = inhibition) at 10uM” value is 17.2%.
As for `Cc1ccc(S(=O)(=O)N(C)CC(=O)OCc2nnc(-c3ccccc3)o2)cc1`, the “hERG current change (%, negative = inhibition) at 10uM” value is -39.4%.
For the molecule `C=CCN1C(=O)/C(=C/C=C2/N(CC)c3ccc(S(=O)(=O)N(C)C)cc3N2CC)SC1=S`, the “hERG current change (%, negative = inhibition) at 10uM” value is -56%.
`Cc1ccc(NC(=O)COC(=O)CN2CCCCCC2=O)cc1C`: the “hERG current change (%, negative = inhibition) at 10uM” value is given as -21.1%.
To `Nc1nc(N)nc(COc2ccccc2)n1` belongs 22.3%.
Turning to `CCN(CC)S(=O)(=O)c1ccc(OC)c(NC(=S)Nc2cccc(C)c2)c1`, the “hERG current change (%, negative = inhibition) at 10uM” value is -12.5%.
As for `CSc1ccc(S(=O)(=O)NCC(=O)OC(C)C(=O)NCc2ccccc2)cc1[N+](=O)[O-]` (centres unmarked), the figure is -36.2%; as for `O=C(Nc1cccnc1)c1cc(-c2ccc(Cl)cc2)on1`, 12.7%.
To `CN(C=C1C(=O)CC(C)(C)CC1=O)CCN1CCNCC1` belongs -1.79%.
As for `Cc1ccc(NC(=O)c2cc(-c3ccccc3O)n[nH]2)cc1Cl`, the figure is 2.39%; as for `CCc1cccc(CC)c1NC(=O)Cn1c(-c2ccc(F)cc2)noc1=O`, 24.2%.
For the molecule `COc1ccc(/C=N/OC(=O)Nc2ccccc2)cc1[N+](=O)[O-]`, the “hERG current change (%, negative = inhibition) at 10uM” value is reported as -58.4%.
To `CC(=O)Nc1ccc(/C=N/NC(=O)CNC(=O)c2ccccc2)cc1` belongs 17.6%; to `CC12CN3CCN(CC(C3)C1(O)CN1CCCCC1)C2` (centres unmarked), 3.92%.
As to `COc1ccc(C(=O)N(CCc2ccccc2)Cc2cccs2)c(OC)c1`, the “hERG current change (%, negative = inhibition) at 10uM” value was -15.9%.
